From the supplement of paper PMC3334620
Over roughly 33,000 sequences, “E-score (-0.5 to 0.5)” has its median near -0.053; the highest 2% begin near 0.37. The list shows a part of the results.

target: Hap1 (UniProt P0CE41); assay: PBM E-score (8-mer binding enrichment) (E-score (-0.5 to 0.5)); higher = stronger / more preferred TF binding; most listed sequences are background and not binding sites; conditions: protein concentration: 200 nM; construct: GST-DNA-binding domain
Procedure, shortened: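 Masliner-normalised scans of fluorescent anti-GST signal were the basis for scoring. That signal came from GST-tagged yeast transcription factors applied at about 100-200 nM to double-stranded universal all-10-mer Agilent arrays on fresh or once-stripped slides. Each ungapped eight-base word, pooled with its reverse complement, received an E-score from the Universal PBM Analysis Suite.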

Chain of UniProt P0CE41 (P0CE41 whole entry, the tested form may be a part): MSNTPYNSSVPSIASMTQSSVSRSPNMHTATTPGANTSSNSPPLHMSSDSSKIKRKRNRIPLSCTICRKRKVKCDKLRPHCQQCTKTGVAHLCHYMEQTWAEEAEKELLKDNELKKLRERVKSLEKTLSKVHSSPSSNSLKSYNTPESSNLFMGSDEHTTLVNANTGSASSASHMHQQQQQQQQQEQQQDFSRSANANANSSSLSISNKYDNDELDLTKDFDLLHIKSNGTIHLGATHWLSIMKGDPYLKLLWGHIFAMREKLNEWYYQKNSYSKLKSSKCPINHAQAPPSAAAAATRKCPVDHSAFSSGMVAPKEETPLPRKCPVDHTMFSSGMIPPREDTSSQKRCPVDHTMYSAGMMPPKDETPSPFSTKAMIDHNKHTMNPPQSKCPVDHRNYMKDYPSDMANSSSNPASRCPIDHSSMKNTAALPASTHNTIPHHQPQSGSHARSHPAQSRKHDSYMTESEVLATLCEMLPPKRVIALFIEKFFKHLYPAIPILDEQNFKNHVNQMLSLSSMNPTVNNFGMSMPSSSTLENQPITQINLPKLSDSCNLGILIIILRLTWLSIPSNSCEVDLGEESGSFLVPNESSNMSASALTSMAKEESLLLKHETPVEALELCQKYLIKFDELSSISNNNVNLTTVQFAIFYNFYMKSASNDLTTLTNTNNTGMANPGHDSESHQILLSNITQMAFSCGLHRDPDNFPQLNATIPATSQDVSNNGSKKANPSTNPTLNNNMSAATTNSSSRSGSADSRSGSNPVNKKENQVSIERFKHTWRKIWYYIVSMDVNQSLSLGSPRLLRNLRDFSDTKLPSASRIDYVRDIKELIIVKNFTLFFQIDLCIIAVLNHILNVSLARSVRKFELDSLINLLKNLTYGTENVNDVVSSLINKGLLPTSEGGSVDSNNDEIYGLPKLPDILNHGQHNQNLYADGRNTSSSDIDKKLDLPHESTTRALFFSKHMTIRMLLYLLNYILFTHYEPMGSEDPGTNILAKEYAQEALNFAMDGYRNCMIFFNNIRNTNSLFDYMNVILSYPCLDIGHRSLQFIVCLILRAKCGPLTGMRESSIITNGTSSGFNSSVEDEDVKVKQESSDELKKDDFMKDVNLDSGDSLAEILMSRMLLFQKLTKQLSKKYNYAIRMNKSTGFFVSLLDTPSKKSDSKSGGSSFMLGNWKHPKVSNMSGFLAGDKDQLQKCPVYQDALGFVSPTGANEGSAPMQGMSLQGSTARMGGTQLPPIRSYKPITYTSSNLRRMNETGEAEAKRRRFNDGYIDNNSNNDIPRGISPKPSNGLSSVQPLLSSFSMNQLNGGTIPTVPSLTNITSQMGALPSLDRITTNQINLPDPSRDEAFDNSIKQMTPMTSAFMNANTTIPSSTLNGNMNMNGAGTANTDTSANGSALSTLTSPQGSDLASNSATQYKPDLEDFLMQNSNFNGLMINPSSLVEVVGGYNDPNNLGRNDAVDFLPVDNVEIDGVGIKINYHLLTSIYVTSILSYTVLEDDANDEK

Sequence | PBM E-score
AACTGTCT | -0.106
CCGTTTAG | 0.166
ATGGTGGA | -0.136
GCTGGTCA | -0.193
ATATGCAG | -0.187
AAGCGTTA | 0.0381
ATTTAGAG | -0.00094
GCCCTTCC | -0.0887
CAATTTGC | -0.103
ACCTCAGT | -0.139
AGTGAGTC | -0.18
GTAGCAGA | -0.141
CCCCCAAC | -0.276
ACCCCGCG | 0.209
AAGGAAGC | -0.199
TAGAACCA | -0.217
GACGCCAC | -0.0231
ATCGGACC | 0.4
GTGCTGGA | -0.0951
CTAGATGA | -0.146
CAGGCACA | -0.192
AGAGGTGC | -0.149
GTAATAAC | 0.00686
GAGGTTTA | -0.0325
ACGCTAAC | -0.165

Sequence | PBM E-score
GCGACCGC | 0.173
ATGCCGGC | 0.287
GCAAGATA | -0.0876
CCTGTGGA | -0.336
AGGTCCTA | -0.134
GCTTGGTA | -0.227
CATGGTAC | -0.135
GGATGGGA | -0.0996
AAAAGCCA | 0.121
CCCGCAGG | 0.179
TAGTACAA | -0.229
CCCGTGAG | -0.0169
CACTTCTA | -0.00161
AAGAACGA | -0.057
CTGATCAC | -0.242
CATCGGGG | 0.277
AAAGGCTG | -0.0944
CGCACTTA | 0.256
TCGGTACA | 0.126
ACGTCAGG | -0.135
ATGTAGTC | -0.174
CACTACAG | -0.167
CGGAGTAC | 0.254
GGTAACCA | -0.18
GCTTTGAA | -0.101

Sequence | PBM E-score
TGATCCCA | -0.0926
CGTGGAAC | 0.0436
ATTGTGGA | -0.186
ACGTGAAC | -0.112
CAGATGCC | -0.153
CCATTCAG | -0.0732
GACGGGGA | 0.213
CGCGGGCC | 0.178
AGCGTACC | 0.0072
CCCGAATC | 0.305
TCGCCTCA | -0.028
GTATGCGA | -0.0349
CTCCGTTA | 0.367
AATCAATC | 0.0358
GATGTTAA | -0.0711
ACAGATAA | -0.148
ACGTGTAA | -0.213
AAGCGCAG | 0.0743
CAAGGACC | -0.13
ATCCTCCC | 0.0165
AGGCGGGG | 0.102
CATTACCA | -0.0444
TCTCTCCA | -0.0861
TCCCAGAA | -0.161
CCTTACTA | -0.00885

Sequence | PBM E-score
ACACTGTA | -0.242
ATTATTTA | 0.0822
ATATTCGA | 0.0739
GGCGCGAC | 0.205
AGAAAGTA | -0.191
CCGTGCAC | 0.0554
AAATGCCA | -0.094
ACGTCAAG | -0.271
AAGGCACA | -0.253
GGTCATAA | 0.313
CCTCCCCC | -0.11
AGTGCCCC | -0.0642
CATCGAGG | -0.23
GTGCTCAA | -0.0795
ACCCACTA | 0.0583
TAGGGTAA | -0.0125
ACGTGAAA | -0.127
ATCATGAT | -0.245
CGCCATTC | 0.142
CCGTAGTC | 0.229
GAATGAGC | -0.029
GAGCTGGC | -0.0387
GAGGACGC | -0.0224
ATTGTGGC | -0.159
AAACCTCA | 0.00633

Sequence | PBM E-score
AAACGACC | -0.0384
CGTCCAGC | -0.105
GCATGAGC | -0.181
ACACAGGA | -0.16
AAAACAGC | -0.0169
CCCCGGTA | 0.334
CACCCCCC | -0.0694
ATATCCGA | 0.463
AGTATCCG | 0.284
ACGGAGTC | 0.149
AACCCTAG | -0.19
TGTCGCAA | -0.0577
GTCCGATA | 0.463
CACGGACC | 0.341
ATTCCTGA | -0.207
AAATGACA | -0.215
CTGCTACA | 0.0385
CGCGGAGA | 0.397
CCGTGTCA | 0.148
TCGACTAA | -0.221
CAAACTTC | -0.105
AGGTACTA | -0.173
CCCTGGGC | -0.21
CCGGGGCC | 0.318
CCCCCCCC | -0.27

Sequence | PBM E-score
TCGAGACA | -0.142
CATGACTA | -0.314
AATTAATG | 0.175
ACCTATCC | -0.0245
ACTTGTGG | -0.104
CACTTAGC | -0.0802
CCTGTTCA | -0.14
AAATTTTC | 0.129
AAGGATCG | -0.0469
CCCACAAG | -0.0447
CAAGGAGC | -0.223
TACACGTA | -0.101
AATGAGGT | -0.0681
CGTCATCA | -0.316
CCCTACAC | -0.00701
ATAATAGC | 0.0944
CAACGCAC | -0.093
CTAGTCTC | -0.111
ATTTCTGG | -0.13
ATCTCGAA | -0.0439
GGAGGATA | -0.0622
CTGTGAGC | -0.109
ATTTAAGG | -0.00117
TGAGGGAA | -0.257
AATCATGG | -0.0861

Sequence | PBM E-score
AATAGTCA | -0.0935
AGCAGGCC | -0.189
AACGTCTC | -0.134
CTACGCTA | -0.136
GCTCCAAA | -0.11
ATTAATAA | 0.171
ATCTCCGG | 0.483
ATCCTATG | -0.0393
AACGAGCA | -0.222
CCAAAAGC | 0.0517
CAGGCATC | -0.222
AGCATACC | -0.166
AGGATTAT | 0.0353
ACAACTCG | 0.0678
ATCGAACC | 0.0819
ACAGTACC | -0.151
CGGATGGA | 0.238
GCCTTATA | 0.101
AATGATCT | -0.0929
AATATGTG | 0.0292
CGTCAAAG | -0.213
CCTTATAA | 0.0568
